# Reference: PubChem BioAssay AID1476 (National Center for Advancing Translational Sciences (NCATS), 2009)
# Hit rate of the full screen: of about 200,000 compounds, about 4,500 (2.2%) were called active. Inconclusive results, whose numbers are uncertain, are shown with a selection of clear calls. Calls follow the shape of the dose curve; as a rule, active = well fitted inhibition curve with a large enough effect; inconclusive = small, poorly fitted or top-dose-only effect, or effect the other way; inactive = flat fitted curve, though single readings scatter. Potencies of inconclusive entries are doubtful fits and often do not repeat. Where a structure was tested more than once in an assay, its records may differ in their call.
# Target: Cruzipain (Trypanosoma cruzi) (UniProt P25779)
# Assay: qHTS Assay for Promiscuous and Specific Inhibitors of Cruzain (without detergent); also: nearly all actives have a fitted effect of over 40% in size;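 as to max response, negative = inhibition: plate controls were enzyme without inhibitor for no effect and buffer without enzyme for full effect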
# Conditions: purified cruzain, Z-FR-AMC fluorescence, no detergent
# How it was run: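 Detergent-free condition (0.00005% Triton X-100) in acetate buffer pH 5.5 with DTT. 1.5 nM enzyme and compound were pre-mixed 15 min, then 2 uM Z-FR-AMC substrate added; reaction progress from fluorescence change between first and third reads (60 s).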
# Potency is read from the fitted curve at half-maximal effect; tags tell the direction and shape of the fitted curve.
# Sequence of UniProt P25779 (P25779 whole entry, looked up): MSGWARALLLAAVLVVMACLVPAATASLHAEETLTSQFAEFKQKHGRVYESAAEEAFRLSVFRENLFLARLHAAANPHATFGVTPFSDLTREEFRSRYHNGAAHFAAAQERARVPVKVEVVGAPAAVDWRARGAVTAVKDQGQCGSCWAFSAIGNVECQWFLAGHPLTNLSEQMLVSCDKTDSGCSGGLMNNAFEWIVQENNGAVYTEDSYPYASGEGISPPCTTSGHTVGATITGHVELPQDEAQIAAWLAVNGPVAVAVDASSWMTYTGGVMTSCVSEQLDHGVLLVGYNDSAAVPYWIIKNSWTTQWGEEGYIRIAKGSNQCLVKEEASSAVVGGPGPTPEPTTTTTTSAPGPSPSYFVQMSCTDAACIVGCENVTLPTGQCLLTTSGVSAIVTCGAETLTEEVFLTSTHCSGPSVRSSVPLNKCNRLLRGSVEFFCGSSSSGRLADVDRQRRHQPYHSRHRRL
Compound,Potency,"max response, negative = inhibition"
Oc1ccc2ccccc2c1C1Nc2cccc3cccc(c23)N1,"inconclusive: 25.1 µM [inhibitor, single point]",
CSCCC(N=CC1=C(O)CC(C)(C)CC1=O)C(=O)O (configuration not stated),"inconclusive: 39.8 µM [inhibitor, single point]",
Cc1ccc(S(=O)(=O)c2c(N)n(CCN3CCOCC3)c3nc4ccccc4nc23)cc1C,"inconclusive: 39.8 µM [activator, single point]",
Cc1ccc(S(=O)(=O)Nc2nc3ccccc3nc2NCc2ccco2)cc1C,"inconclusive: 31.6 µM [inhibitor, single point]",
COc1ccc(NC(=O)CN2CCCN(Cc3ccc(Cl)cc3)S2(=O)=O)cc1Cl,,inactive: -18.2%
CCN1C(C(=O)c2ccccc2)=C(Nc2ccccc2C)c2ccccc2S1(=O)=O,"inconclusive: 39.8 µM [inhibitor, single point]",
COc1cc(NC(=O)c2ccco2)ccc1NC(=O)C(C)C,"inconclusive: 31.6 µM [inhibitor, single point]",
CCC/C=C(\CCC)C(NS(=O)(=O)c1ccc(-c2ccccc2)cc1)c1ccc(C(=O)OC)cc1 (configuration not stated),"inconclusive: 31.6 µM [inhibitor, single point]",
COC(=O)c1ccc(NC(=O)CC2C(=O)N(c3ccc(Cl)cc3)C(=O)N2Cc2ccco2)cc1 (configuration not stated),"inconclusive: 25.1 µM [inhibitor, single point]",
COc1cc(NC(=O)CSc2nc3cc(C)ccc3cc2C)c(C(=O)O)cc1OC,"inconclusive: 39.8 µM [activator, single point]",
CCN1C(=O)c2ccccc2S(=O)c2ccc(C(=O)N3CCN(c4cccc(C)c4)C(C)C3)cc21 (configuration not stated),"inconclusive: 39.8 µM [activator, single point]",
CC(C)[N+]1(C)C2CCC1CC(OC(=O)C(CO)c1ccccc1)C2 (configuration not stated),,inactive: 5.89%
CCSc1nnc(NC(=O)c2ccc(Br)s2)s1,active: 25.1 µM,
COc1cc(C(=O)N2CCN(C(=O)C(Cc3cc(C)ccc3C)NC(C)=O)CC2)cc(OC)c1OC (configuration not stated),"inconclusive: 39.8 µM [activator, single point]",
CCOC(=O)c1ccc(NS(=O)(=O)c2cc(-c3onc(C)c3C)ccc2C)cc1,,inactive: 1.43%
O=C(CSc1nc2ccccc2c(=O)n1-c1ccc(F)cc1)Nc1ccc(Cl)c(S(=O)(=O)N2CCOCC2)c1,"inconclusive: 31.6 µM [inhibitor, single point]",
CC1=C(C(=O)OCc2ccccc2)C(c2cccc(Cl)c2Cl)CC(=O)N1 (configuration not stated),,inactive: 0.459%
Cc1nn(C)c2c1c(C(F)(F)F)cc(=O)n2C(C)C(=O)NCc1ccc(Cl)cc1 (configuration not stated),,inactive: -3.11%
COc1ccc(-n2c(C)cc(/C=C3/SC(=S)N(C)C3=O)c2C)cc1,"inconclusive: 31.6 µM [inhibitor, single point]",
CC(=O)c1c(O)c(C)c(O)c(Cc2c(O)c3c(c(C(=O)/C=C/c4ccccc4)c2O)OC(C)(C)C=C3)c1O,active: 7.94 µM,
COc1ccc(-c2nn(-c3ccccc3)cc2/C=N/NC(=O)c2cccc(S(=O)(=O)Nc3ccccc3Cl)c2)cc1,active: 7.94 µM,
COc1ccc(CC(=O)Nc2cccc(-c3nnc(-c4cccc(C)c4)o3)c2)cc1OC,"inconclusive: 39.8 µM [activator, single point]",
O=C(CCC(=O)c1ccc[nH]1)c1ccc(Cl)cc1,"inconclusive: 25.1 µM [inhibitor, single point]",

Compound,Potency,"max response, negative = inhibition"
CCOc1cc(/C=C2/C(=O)ON=C2C)ccc1OCc1ccc(F)cc1,"inconclusive: 31.6 µM [activator, single point]",
Cn1c(=O)c2c(nc3n(-c4ccc(O)cc4)c(-c4ccc(Br)cc4)cn23)n(C)c1=O,,inactive: -3.39%
Cc1nn(C)c(C)c1NC(=O)CCSc1nc(-c2ccco2)cc(C(F)(F)F)n1,"inconclusive: 39.8 µM [activator, single point]",
O=C(c1ccncc1)N1CCC2(CC1)CCN(c1ccccc1)CC2,,inactive: -4.07%
N#C/C(=C\C1=C(N2CCOCC2)C(=C\c2ccc(Cl)cc2)/CC1)C(=O)Nc1ccccc1F,active: 10 µM,
Cc1ccc(/C=N/NC(=O)Cc2cccn2C)s1,,inactive: 11.4%
Cc1ccc(Cl)cc1Nc1nc(-c2sc(NC(=O)c3ccco3)nc2C)cs1,active: 25.1 µM,
COCCNC(=O)CSc1nnc(CCCN2C(=O)c3cccc4cccc(c34)C2=O)n1-c1ccccc1,,inconclusive: 70.5% [activator]
Cc1nc2ccccn2c(=O)c1NC(=O)c1ccc(C(F)(F)F)cc1,,inactive: -14.3%
Cc1sc(NC(=O)Cc2ccc3c(c2)OCO3)nc1-c1ccc2c(c1)CCN2C(=O)c1ccccc1F,active: 7.94 µM,
COc1ccccc1CNC(=O)c1ccc2c(c1)nc(C)n2-c1ccccc1OC,,inactive: 9.23%
COc1ccccc1Nc1nc(-c2sc(NC(=O)c3cccc(Cl)c3)nc2C)cs1,active: 7.94 µM,
COc1cc(Nc2ncc3c(n2)CCN(Cc2cc(Br)cs2)C3)cc(OC)c1,active: 25.1 µM,
CCCCNc1nc2c(S(=O)(=O)c3ccc(C)c(C)c3)nnn2c2ccsc12,"inconclusive: 31.6 µM [inhibitor, single point]",
COc1ccc(OC)c(/C=C(/C#N)c2nc(-c3ccc(-c4ccccc4)cc3)cs2)c1,,inactive: -0.391%
O=C(NCc1ccccc1)c1nn(-c2ccccc2)nc1CO,,inactive: -2.97%
Cc1ccc(N2C(=O)CCSC23C(=O)N(Cc2ccccc2)c2ccccc23)cc1F (configuration not stated),"inconclusive: 31.6 µM [inhibitor, single point]",
CC(C)(C)NC(=O)COC(=O)CNC(=O)c1cc(Cl)cc([N+](=O)[O-])c1,active: 20 µM,
CC(C)(C)c1ccc(C(=O)Nc2ccc(C=C(C#N)C#N)cc2)cc1,active: 31.6 µM,
CCc1nnc(NS(=O)(=O)c2ccc(NC(=S)NC(=O)c3ccccc3)cc2)s1,,inactive: -1.59%
CCCCCCCCCCC/C=C\C(C)(C)/C=C\CCCC(=O)O,"inconclusive: 6.31 µM [inhibitor, single point]",
Cc1ccccc1CN1C(=O)c2ccccc2Sc2ccc(C(=O)NC(C)c3ccccc3)cc21 (configuration not stated),"inconclusive: 39.8 µM [inhibitor, single point]",
Cc1cc2c(cc1C)N(C(=O)CN1C(=O)c3ccccc3C1=O)C(C)(C)c1ssc(=S)c1-2,active: 2.51 µM,

Compound,Potency,"max response, negative = inhibition"
CCOc1ccccc1NC(=O)CN1C(=O)CC(c2ccc(OC)c(OC)c2)Sc2ccccc21 (configuration not stated),"inconclusive: 31.6 µM [activator, single point]",
CCOc1ccc(C(Nc2ccc(C)cc2)P2(=O)OCC(C)(C)CO2)cc1 (configuration not stated),"inconclusive: 39.8 µM [activator, single point]",
COC(=O)/C(=C\Nc1cccc(Cl)c1C)c1ncc(C(F)(F)F)cc1Cl,"inconclusive: 0.158 µM [inhibitor, single point]",
N#Cc1ccc(CN2C(=O)c3ccccc3Sc3ccc(C(=O)OCc4ccco4)cc32)cc1,,inactive: -2.78%
CCOc1ccc2nc(NC(=O)CS(=O)(=O)c3ccc(Cl)cc3)sc2c1,active: 5.01 µM,
O=C(N/N=C\c1cn(-c2ccccc2)nc1-c1ccccc1)c1ccc(Br)o1,active: 25.1 µM,
CCSc1nc2sc3c(c2c(=O)[nH]1)CCCC3,"inconclusive: 39.8 µM [inhibitor, single point]",
Oc1c(Br)cccc1/C=N/Nc1c(F)c(F)c(F)c(F)c1F,"inconclusive: 39.8 µM [inhibitor, single point]",
CCN(CCCCN1C(=O)c2ccccc2C1=O)c1ccc2c(c1)C(=O)N(C)C2=O,"inconclusive: 39.8 µM [activator, single point]",
CCOC(=O)c1cnc(-n2nc(C)cc2C)nc1NNc1nc(-c2ccccc2)cc(-c2ccccc2)n1,active: 20 µM,
COC(=O)c1ccc(-n2nnc(-c3nc(-c4ccc5c(c4)OCO5)no3)c2C)cc1,,inactive: -0.792%
CC(C)c1nc2ccc(C(=O)NCCCN3CCN(c4ccccc4F)CC3)cc2o1,,inactive: 5.91%
CC(=O)NCCNc1nc2c(S(=O)(=O)c3ccc(C)c(C)c3)nnn2c2ccc(Cl)cc12,"inconclusive: 31.6 µM [activator, single point]",
CCOP(=O)(OCC)c1nc(/C=C/c2ccccc2)oc1NCc1ccc(OC)cc1,"inconclusive: 25.1 µM [activator, partial curve]",
COc1ccc(-n2c(C)cc(-c3csc(NC(=O)c4ccc(S(=O)(=O)N(C)C)cc4)n3)c2C)cc1,active: 10 µM,
COc1cc(CN(CC2CCCO2)C(=O)c2ccc(F)cc2)cc(OC)c1OC (configuration not stated),,inactive: 4.78%
COc1ccc(-c2nc3cnc(N4CCOCC4)nc3n(C[C@H]3CCCO3)c2=O)cc1,"inconclusive: 25.1 µM [activator, single point]",
O=C1OC(c2ccc(Br)cc2)=N/C1=C\N1CCCCC1,"inconclusive: 39.8 µM [activator, single point]",
CCN(CC)S(=O)(=O)c1ccc2c(c1)c(=O)c(C(=O)NCc1ccccc1)cn2C,,inactive: -9.62%
COc1ccc(N2C(=O)CCC(C(=O)N3CCCCC3)C2c2ccc(F)cc2)cc1 (configuration not stated),"inconclusive: 31.6 µM [activator, single point]",
COc1ccc(-c2cn3nc(N4CCC(C(=O)Nc5cccc(Cl)c5)CC4)sc3n2)cc1,"inconclusive: 6.31 µM [inhibitor, single point]",
